Test results as given in US20030133972A1, “Targeted multivalent macromolecules” (priority 2000, published 2003).

System: K1735-M2 mouse melanoma model
Assay: TUNEL assay on resected tumors of the melanoma study
Conditions: no Y90; tumor resected eight days post treatment
From the text: Eight days post treatment one tumor from each treatment group was selected at random for histological staining. The tumors were resceted and frozen in isopentane at liquid nitrogen temperatures.
Marin Biologic Laboratories, Inc. in Tiburon Calif. performed TUNEL assay, Von Willebrand's Factor and H&E staining on resceted tumors.

“4-[2-(3,4,5,6-Tetrahydropyrimidin-2-ylamino)ethyloxy]-benzoyl-2-(S)amino Ethylsulfonylamino-β-alanine [Compound 10]” was tested, and the TUNEL assay result was “mostly healthy cells”.
